Data: PubChem BioAssay AID686979 (National Center for Advancing Translational Sciences (NCATS), 2013)
Several values for one entry are separate records, joined by “and”; a condition that tells them apart may be missing. Equal values may be shown once. Hit rate of the full screen: of about 420,000 compounds, about 50,000 (12%) were called active. The shares of active, inactive and inconclusive entries below differ from those in the screen. Calls follow the shape of the dose curve; as a rule, active = well fitted inhibition curve with a large enough effect; inconclusive = small, poorly fitted or top-dose-only effect; inactive = flat fitted curve, though single readings scatter. A potency beside an inconclusive call is a rough fit, not a confirmed value.
% is scaled to controls: 0 for no effect and ±100 for the full control effect; potency is read from the fitted curve at half-maximal effect; tags tell the direction and shape of the fitted curve.

Test: qHTS for Inhibitors of human tyrosyl-DNA phosphodiesterase 1 (TDP1): qHTS in cells in presence of CPT; also: nearly all actives have a fitted effect of over 55% in size
Details: chicken DT40 Tdp1-/-;hTDP1 cells + 20 nM CPT, ATP luminescence, 48 h; activity change, negative = growth inhibition: at 46.2 µM (top of the series) unless noted
Outline: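 Cell growth measured by CellTiter-Glo luminescence after a minimum 48 h, 37 C compound exposure with 20 nM CPT in Tdp1-knockout DT40 cells stably expressing hTDP1, seeded 400/well; qHTS titration format.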
With `N#Cc1c(NC(=O)Cn2c(=O)oc3ccccc32)oc(-c2ccccc2)c1-c1ccccc1` the Potency was active: 9.2 µM. With `CC1(C(=O)NCc2ccc(Cl)c(Cl)c2)Oc2ccccc2NC1=O` (stereo unspecified) the Potency was “inactive”. In the case of `CC(Oc1cccc(Cl)c1)C(=O)Nc1ccccc1N1CCCC1` (stereo unspecified), the Potency was inconclusive: 16.4 µM [inhibitor, single point]. For `Cn1c2ccccc2c2nnc(N/N=C/c3ccc(O)cc3)nc21`, the Potency was “inactive”. In the case of `CCOc1ccccc1N1CCN(CC(O)COCc2cccs2)CC1` (stereo unspecified), the Potency was “inactive”. With `COCCNC(=O)/C(C#N)=C/c1ccc(N2CCOCC2)o1` the Potency was “inactive”. For `CC1CCCN(c2nc3c(S(=O)(=O)c4ccc(C(C)C)cc4)nnn3c3ccsc23)C1` (stereo unspecified), the Potency was inconclusive: 29.1 µM [inhibitor, single point]. For `CC1C(=O)CCC1(C(=O)O)c1ccccc1` (stereo unspecified), the Potency was inconclusive: 23.1 µM [inhibitor, single point]. In the case of `Cn1c(Cc2cccs2)nnc1SCC(=O)Nc1ccccc1`, the Potency was “inactive”. In the case of `O=c1oc2c(-c3cccc(F)c3)cc(O)cc2s1`, the Potency was inconclusive: 29.1 µM [inhibitor, single point]. For `Cc1ccc2nc(-c3ccccc3N)[nH]c2c1`, the Potency was “inactive”. With `C#CC1CN(Cc2ccccc2)CC(C#C)N1C` (stereo unspecified) the Potency was “inactive”. With `Cc1ccccc1-n1c(SCC(N)=O)nc2sc(-c3ccccc3)cc2c1=O` the Potency was inconclusive: 18.4 µM [inhibitor, single point]. In the case of `CCCC[n+]1ccn(-c2nc3ccccc3nc2[N-]S(=O)(=O)c2cccs2)c1`, the Potency was inconclusive: 29.1 µM [inhibitor, single point]. In the case of `O=C(Cc1ccccc1Cl)NCCCn1ccnc1`, the activity change, negative = growth inhibition was inconclusive: -0.259% [inhibitor]. In the case of `COc1ccc(OC)c(NC(=O)CSc2nnc(CNc3ccc(C)cc3C)o2)c1`, the activity change, negative = growth inhibition was inconclusive: -30.8% [inhibitor]. In the case of `O=C(NCc1ccccc1)c1cnsn1`, the activity change, negative = growth inhibition was inconclusive: -31.5% [inhibitor]. For `Cc1nc(Nc2ccc(S(N)(=O)=O)cc2)sc1-c1ccccc1`, the Potency was inconclusive: 23.1 µM [inhibitor, single point]. With `CCC1CCCCN1CCCNC(=O)c1c(O)nc2ccccn2c1=O` (stereo unspecified) the Potency was “inactive”. For `COc1cccc(/C=N/NC(=O)C(C)n2nnc3ccccc32)c1` (stereo unspecified), the Potency was inconclusive: 18.4 µM [inhibitor, single point]. In the case of `O=C(CNc1ccc(F)cc1)N/N=C/c1c(O)ccc2ccccc12`, the Potency was active: 10.3 µM. With `O=C1c2ccccc2C(=O)N1CCc1ccccc1` the Potency was inconclusive: 29.1 µM [inhibitor, single point]. With `COc1ccc(-c2csc(-c3nc(-c4ccc(Br)s4)cs3)n2)cc1F` the Potency was “inactive”. For `CC(O)c1nc2ccccc2n1Cc1ccccc1` (stereo unspecified), the Potency was “inactive”. With `CC(C)(CC(=O)O)CC(=O)N1CCN(c2cc(C(F)(F)F)nc3ccccc23)CC1` the Potency was “inactive”. For `O=C(NCc1ccccc1)C1CCCN(c2ncnc3c2nc2n3CCCCC2)C1` (stereo unspecified), the Potency was inconclusive: 23.1 µM [inhibitor, single point]. With `CC1(C)Oc2cc3oc(-c4cc(O)cc(O)c4)cc3cc2CC1O` (stereo unspecified) the Potency was active: 20.6 µM. In the case of `O=C(c1ccc(Cl)cc1)N1CCN(c2ccc([N+](=O)[O-])c(NCc3cccnc3)c2)CC1`, the Potency was inconclusive: 25.9 µM [inhibitor, single point]. For `Cc1cc(C)c(S(=O)(=O)N2CCCC(C(=O)NCc3ccncc3)C2)c(C)c1` (stereo unspecified), the Potency was “inactive”. In the case of `COc1ccc(NC(=O)c2sc(Cl)nc2-c2ccccc2)cc1`, the Potency was inconclusive: 20.6 µM [inhibitor, single point]. In the case of `CC(C)(C)N/N=C/c1c(O)n(-c2ccc(Cl)cn2)c(=O)c2ccccc12`, the Potency was inconclusive: 25.9 µM [inhibitor, single point]. In the case of `CC(Cl)C(=O)NN=C(c1ccccc1)c1ccccc1` (stereo unspecified), the Potency was inconclusive: 25.9 µM [inhibitor, single point]. For `O=C(Nc1cccc(NC(=O)c2cccc([N+](=O)[O-])c2)n1)c1cccc([N+](=O)[O-])c1`, the Potency was “inactive”. In the case of `N=C1C=CC=C2C1=NC1(CCCCC1)N2O`, the Potency was “inactive”. In the case of `Oc1ccc(Br)cc1C1C=C(c2ccc3c(c2)OCO3)NC(c2ccc(Cl)cc2)N1` (stereo unspecified), the Potency was active: 7.08 µM. With `COc1cccc(CN2CC(C(=O)N3CCN(c4ccc(Cl)cc4)CC3)CCC2=O)c1` (stereo unspecified) the Potency was active: 23.1 µM. With `CC1Cc2nc(SCC(=O)Nc3nccs3)n(Cc3ccccc3)c(=O)c2S1` (stereo unspecified) the Potency was active: 20.6 µM. For `O=C1/C(=C\c2ccncc2)CCc2ccccc21`, the Potency was active: 13 µM. With `COc1ccc(C(C)=O)cc1Cn1c(C)c(C(=O)NCc2cccc(C)c2)sc1=O` the Potency was inconclusive: 18.4 µM [inhibitor, single point]. In the case of `COCCn1c(=O)c(C)nc2cnc(Nc3cccc(OC)c3)nc21`, the Potency was inconclusive: 18.4 µM [inhibitor, single point]. For `O=C(Nc1nnc(CSCc2ccc(F)cc2)s1)c1cccc([N+](=O)[O-])c1`, the Potency was inconclusive: 20.6 µM [inhibitor, single point]. In the case of `O=C(NC1CCCc2ccccc21)c1cccc(Br)c1` (stereo unspecified), the Potency was inconclusive: 29.1 µM [inhibitor, partial curve, poor fit]. In the case of `COc1ccc(-c2nc(N)nc(C(F)(F)F)c2-c2csc(C)n2)c(O)c1`, the Potency was “inactive”. In the case of `C=CCn1c(C)cc(C(=O)Cn2nc(C(=O)O)c3ccccc3c2=O)c1C`, the Potency was inconclusive: 29.1 µM [inhibitor, single point]. For `COc1cc2c(-c3ccccc3O)nc3c(c(C)nn3-c3ccccc3)c2cc1OC`, the Potency was inconclusive: 23.1 µM [inhibitor, single point] and inconclusive: 10.3 µM [inhibitor, partial curve]. With `CC(C)(O)C#Cc1ccc(N2C(c3ccsc3)=Cc3ccc(F)cc3C2c2c[nH]c3ccc(C#N)cc23)cc1` (stereo unspecified) the Potency was active: 5.17 µM. With `Cc1cc(N2CCOCC2)nc(NCc2ccccc2)n1` the Potency was active: 20.6 µM. In the case of `COc1ccc(C(CNC(=O)C(C)(C)Oc2ccc(Cl)cc2)N2CCCCC2)cc1` (stereo unspecified), the Potency was inconclusive: 25.9 µM [inhibitor, single point]. With `Cc1oc(=O)c(NC(=O)c2cccc(Cl)c2)cc1C(=O)c1ccccc1` the Potency was active: 29.1 µM. For `NC(=O)c1cc[n+](Cc2ccccc2Cl)cc1`, the Potency was “inactive”. In the case of `COC(=O)C(CC(C)C)N1CCC(=O)c2ccccc2S1(=O)=O` (stereo unspecified), the Potency was inconclusive: 23.1 µM [inhibitor, single point]. In the case of `CCOC(=O)Cn1nc(-c2ccc(F)cc2)oc1=O`, the Potency was “inactive”. For `COc1ccccc1NS(=O)(=O)c1ccc2c(c1)n(C)c(=O)n2C`, the Potency was inconclusive: 13 µM [inhibitor, partial curve, poor fit]. In the case of `O=c1c(-c2cc(F)cc(F)c2)nc2cnc(N3CCOCC3)nc2n1CCc1ccccc1`, the Potency was “inactive”. For `O=C(CN1CCCC1)N/N=C/c1c(O)ccc2ccccc12`, the Potency was inconclusive: 29.1 µM [inhibitor, single point]. In the case of `COc1ccccc1NC(=O)C1=C(C)Nc2nnnn2C1c1cccc(C)c1` (stereo unspecified), the Potency was inconclusive: 29.1 µM [inhibitor, single point]. In the case of `COCC1CCN(C(=O)c2cc(COc3ccc(-n4cncn4)cc3)on2)C1` (stereo unspecified), the Potency was “inactive”. For `CN(C)S(=O)(=O)c1cccn1-c1ncc(C(F)(F)F)cc1Cl`, the Potency was inconclusive: 18.4 µM [inhibitor, single point]. In the case of `COc1cccc(CN2C(=O)c3ccccc3Sc3ccc(C(=O)NCCc4ccc(C)cc4)cc32)c1`, the Potency was inconclusive: 29.1 µM [inhibitor, single point]. With `COc1ccc(Cc2nnc(NC(=O)C3CCN(C(=O)c4ccco4)CC3)s2)cc1` the Potency was “inactive”. In the case of `COc1ccc2cc(C(C)C(=O)N3CCC(C)CC3)ccc2c1` (stereo unspecified), the Potency was active: 16.4 µM. For `CCCCNC(=O)c1onc(CSc2ccc(C(C)C)cc2)c1C(=O)O`, the Potency was “inactive”. In the case of `O=C(Nc1ccc(-c2nc3cc(NC(=O)c4ccccc4F)ccc3o2)cc1)c1ccccc1F`, the Potency was active: 14.6 µM. For `Cc1nnc(SCCn2c(N(C)Cc3ccccc3)nc3c2c(=O)n(C)c(=O)n3C)s1`, the Potency was inconclusive: 15.8 µM [inhibitor, single point]. For `O=c1[nH]c(CN2CCN(c3ccc([N+](=O)[O-])cc3)CC2)nc2ccsc12`, the Potency was inconclusive: 18.4 µM [inhibitor, partial curve]. For `O=C1c2ccccc2S(=O)(=O)c2cc(C(=O)N3CCN(c4ncccn4)CC3)ccc21`, the Potency was inconclusive: 18.4 µM [inhibitor, partial curve]. With `COc1ccc(N2CCN(c3cc(C)c4ccc(C)cc4n3)CC2)cc1` the activity change, negative = growth inhibition was inconclusive: -32.9% [inhibitor]. For `Cc1cccc(NC(=O)Cn2cc(C(=O)C3CCCCC3)c3ccccc32)c1C`, the Potency was inconclusive: 29.1 µM [inhibitor, single point]. With `Cc1ccc(Cn2cc(SCC(N)=O)c3ccccc32)cc1` the Potency was “inactive”. For `CC(=O)c1ccc(C(=O)N2CCCC(CCC(=O)N(C)CCc3ccccn3)C2)s1` (stereo unspecified), the Potency was “inactive”. For `CCCCCCCC/C=C\CCCCCCCC(=O)NCc1ccc(O)c(OC)c1`, the Potency was active: 3.35 µM. In the case of `O=C(NCc1nnc(SCC(=O)N2CCN(c3ccccc3)CC2)o1)c1ccccc1`, the Potency was inconclusive: 20.6 µM [inhibitor, single point]. In the case of `O=c1oc2ccccc2c(Nc2ccc(F)cc2)c1[N+](=O)[O-]`, the Potency was inconclusive: 23.1 µM [inhibitor, single point]. With `CCN(Cc1ccncc1)Cc1ccc2c(c1)CN(C(=O)c1ccccc1-n1cccn1)CCO2` the Potency was “inactive”. With `O=C(CN1CCc2ccccc2C1)NCc1ccco1` the Potency was “inactive”. In the case of `CC1(C(=O)NCc2ccc(Cl)cc2)CCN1C(=O)Cc1cccc2ccccc12` (stereo unspecified), the Potency was inconclusive: 29.1 µM [inhibitor, single point].
